Measurements from the supplement of paper PMC10126150.
Values marked as one replicate rest on one cluster of the flow cell; about a third of the high ones do not repeat.
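Also: ATP exposure 15 min at 22 °C before imaging.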

These sequences were tested on ATP (assay: switch fluorescence ratio, 500 uM ATP over buffer (Cy3 cluster intensity, sum of 5 cycles each) (fold (ratio)); higher = stronger signal-on switching upon ATP binding; sequences stand for … in TCGTCGGCAGCGTCAGATGTGTATAAGAGACAGTTTTTTTTTTTTTTTTTTTTTTTTT…TC). Details: aptamer strand: ATP DNA aptamer (quencher-CACCTGGGGGAGTATTGCGGAGGAAGG + anchor), 100 nM annealed; ATP concentration: 500 uM; one replicate.
How it was run: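 Clusters with intensities outside 100-1000 RFU were excluded. The remaining Cy3-labelled switching-strand clusters on a modified Illumina MiSeq flow-cell had been annealed to 100 nM quencher-labelled ATP aptamer and imaged in selection buffer, then after 15 min with 500 uM ATP at 22 °C, for five cycles separated by NaOH stripping and re-annealing. The fluorescence ratio, averaged per switch-domain sequence, is each cluster's summed target-cycle Cy3 intensity over its summed buffer-cycle Cy3 intensity.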
TCTAAATTTT gave a switch fluorescence ratio of 0.959.
With TCTAACTGCT the switch fluorescence ratio was 0.968.
Sequence TCTAACTGTT has a switch fluorescence ratio of 0.839.
Sequence TCTAACTTGA has a switch fluorescence ratio of 1.01.
TCTAAGACCC showed a switch fluorescence ratio of 0.993.
In the case of TCTAAGACTG, the switch fluorescence ratio is reported as 1.02.
Work on TCTAAGAGTG yielded a switch fluorescence ratio of 1.
TCTAAGTGGC showed a switch fluorescence ratio of 1.03.
TCTAATACGC showed a switch fluorescence ratio of 1.03.
TCTAATATT was tested, and the switch fluorescence ratio was 1.01.
TCTAATGGAT gave a switch fluorescence ratio of 0.99.
TCTAATGGGG gave a switch fluorescence ratio of 0.949.
For TCTACACATT, the switch fluorescence ratio was 1.1.
TCTACCGCCA was tested, and the switch fluorescence ratio was 2.25.
TCTACGTCCC was tested, and the switch fluorescence ratio was 1.14.
With TCTACTAGGC the switch fluorescence ratio was 1.
TCTACTCTTT was tested, and the switch fluorescence ratio was 0.966.
Work on TCTAGACTTC yielded a switch fluorescence ratio of 0.984.
For TCTAGAGGTT, the switch fluorescence ratio was 1.01.
For TCTAGTATAG, the switch fluorescence ratio was 0.958.
TCTAGTATGT gave a switch fluorescence ratio of 0.994.
TCTAGTTGGA showed a switch fluorescence ratio of 1.
With TCTATAACGA the switch fluorescence ratio was 1.02.
Work on TCTATACGGA yielded a switch fluorescence ratio of 0.982.
Sequence TCTATATAAT has a switch fluorescence ratio of 1.01.
TCTATCTAA showed a switch fluorescence ratio of 0.977.
Work on TCTATGCATA yielded a switch fluorescence ratio of 1.18.
Sequence TCTATGGGCA has a switch fluorescence ratio of 1.04.
Sequence TCTATTGTAG has a switch fluorescence ratio of 1.01.
Sequence TCTCAAAGAC has a switch fluorescence ratio of 1.54.
TCTCAATGAT was tested, and the switch fluorescence ratio was 1.01.
For TCTCACAAGT, the switch fluorescence ratio was 0.986.
TCTCAGAGGT gave a switch fluorescence ratio of 0.97.
In the case of TCTCATCCGT, the switch fluorescence ratio is reported as 1.23.
TCTCATGCAC was tested, and the switch fluorescence ratio was 1.84.
Sequence TCTCATGGC has a switch fluorescence ratio of 0.976.
In the case of TCTCATTTCA, the switch fluorescence ratio is reported as 0.987.
For TCTCCGAGGG, the switch fluorescence ratio was 1.43.
TCTCGAATTT was tested, and the switch fluorescence ratio was 1.01.
Work on TCTCGACCT yielded a switch fluorescence ratio of 1.04.
Sequence TCTCGACGGG has a switch fluorescence ratio of 0.971.
With TCTCGATAGG the switch fluorescence ratio was 1.01.
Sequence TCTCGATGGA has a switch fluorescence ratio of 1.01.
With TCTCGGTATT the switch fluorescence ratio was 0.987.
Work on TCTCGGTGCG yielded a switch fluorescence ratio of 0.996.
Sequence TCTCGTCCGG has a switch fluorescence ratio of 1.08.
Sequence TCTCGTCGAA has a switch fluorescence ratio of 0.979.
TCTCGTCTAT was tested, and the switch fluorescence ratio was 1.05.
TCTCGTTAAC was tested, and the switch fluorescence ratio was 1.06.
With TCTCGTTTTA the switch fluorescence ratio was 1.02.
TCTCTAAGAG gave a switch fluorescence ratio of 1.15.
In the case of TCTCTAAGG, the switch fluorescence ratio is reported as 0.981.
In the case of TCTCTATGGC, the switch fluorescence ratio is reported as 1.79.
TCTCTCGTGG showed a switch fluorescence ratio of 0.971.
With TCTCTGCGTA the switch fluorescence ratio was 1.87.
TCTCTGGTGT showed a switch fluorescence ratio of 1.17.
In the case of TCTCTTCCGG, the switch fluorescence ratio is reported as 1.26.
Work on TCTCTTTAGG yielded a switch fluorescence ratio of 0.991.
TCTCTTTATC gave a switch fluorescence ratio of 1.1.
TCTCTTTTCG gave a switch fluorescence ratio of 0.993.
In the case of TCTGAAAGGA, the switch fluorescence ratio is reported as 0.973.
TCTGAACGAG gave a switch fluorescence ratio of 1.03.
Work on TCTGAAGGGT yielded a switch fluorescence ratio of 1.02.
Work on TCTGAATTGG yielded a switch fluorescence ratio of 1.01.
In the case of TCTGACAAAA, the switch fluorescence ratio is reported as 2.08.
For TCTGACCGGA, the switch fluorescence ratio was 1.05.
With TCTGAGTCGG the switch fluorescence ratio was 1.31.
TCTGATAATA showed a switch fluorescence ratio of 1.01.
TCTGATAG was tested, and the switch fluorescence ratio was 0.983.
Work on TCTGATCAAT yielded a switch fluorescence ratio of 1.13.
TCTGATGGAG showed a switch fluorescence ratio of 1.04.
For TCTGCATGCA, the switch fluorescence ratio was 1.01.
TCTGCCAACA was tested, and the switch fluorescence ratio was 1.03.
Work on TCTGCCACAA yielded a switch fluorescence ratio of 1.85.
Sequence TCTGGAAGG has a switch fluorescence ratio of 0.999.
TCTGGAGATG gave a switch fluorescence ratio of 1.05.
